According to PMC4336329 (PLoS ONE, 2015):
The whole screen tested about 310,000 compounds, of which about 14,000 (4.5%) showed an effect of 50% or more. The effect is printed as a negative number. The list shows a part of the results.

Molecular target: human ether-à-go-go-related gene (hERG) potassium channel (human, UniProt Q12809)
Assay: primary screen, population patch clamp on CHO cells stably expressing hERG
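Further: peak tail current of the secondary pulse compared with the same well before compound.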

human ether-à-go-go-related gene (hERG) potassium channel, sequence (Q12809 whole entry, looked up): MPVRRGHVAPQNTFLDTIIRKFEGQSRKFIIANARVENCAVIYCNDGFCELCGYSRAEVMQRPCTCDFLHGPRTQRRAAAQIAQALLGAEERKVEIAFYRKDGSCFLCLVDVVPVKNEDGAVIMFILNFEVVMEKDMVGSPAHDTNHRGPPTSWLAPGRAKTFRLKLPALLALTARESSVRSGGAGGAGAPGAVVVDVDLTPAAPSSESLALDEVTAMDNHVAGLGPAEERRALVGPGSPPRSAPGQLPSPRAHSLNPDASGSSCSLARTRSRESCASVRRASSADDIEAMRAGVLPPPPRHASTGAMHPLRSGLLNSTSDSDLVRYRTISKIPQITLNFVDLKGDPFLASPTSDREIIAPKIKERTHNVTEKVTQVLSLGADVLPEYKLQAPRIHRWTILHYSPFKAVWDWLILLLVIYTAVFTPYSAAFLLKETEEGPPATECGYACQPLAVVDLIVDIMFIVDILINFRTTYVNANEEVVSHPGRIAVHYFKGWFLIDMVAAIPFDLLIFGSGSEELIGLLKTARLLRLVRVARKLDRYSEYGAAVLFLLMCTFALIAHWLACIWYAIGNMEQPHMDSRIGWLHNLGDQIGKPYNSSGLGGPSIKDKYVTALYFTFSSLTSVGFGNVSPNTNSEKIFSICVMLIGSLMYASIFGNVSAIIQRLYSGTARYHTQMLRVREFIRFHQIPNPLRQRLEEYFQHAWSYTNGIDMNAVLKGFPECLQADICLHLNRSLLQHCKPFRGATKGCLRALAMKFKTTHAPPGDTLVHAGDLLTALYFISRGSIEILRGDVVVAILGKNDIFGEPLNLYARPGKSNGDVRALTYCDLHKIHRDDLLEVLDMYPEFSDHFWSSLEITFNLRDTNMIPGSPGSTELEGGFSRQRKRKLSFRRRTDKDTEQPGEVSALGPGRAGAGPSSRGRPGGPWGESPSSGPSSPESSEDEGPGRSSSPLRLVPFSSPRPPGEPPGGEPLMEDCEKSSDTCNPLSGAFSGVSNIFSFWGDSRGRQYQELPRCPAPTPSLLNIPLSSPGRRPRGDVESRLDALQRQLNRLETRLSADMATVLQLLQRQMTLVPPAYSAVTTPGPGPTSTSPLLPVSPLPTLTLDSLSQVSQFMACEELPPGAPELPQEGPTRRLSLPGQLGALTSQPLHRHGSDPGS

| SMILES | hERG current change (%, negative = inhibition) at 10uM |
| --- | --- |
| CCOC(=O)[C@H]1[C@H]2COc3ccc(OC)cc3[C@@H]2N2C(=O)CN(CC3CCCO3)C(=O)[C@@]12C (some centres unmarked) | 18.4% |
| FC(F)(F)c1cc(-c2ccccc2)nc(NCC2CCCO2)n1 (centres unmarked) | -0.375% |
| O=C(/C=C/c1ccc(OC2CSC2)cc1)c1ccc(Cl)cc1 | 2.42% |
| CCOC(=O)C1=C(O)C(=O)N(Cc2cccnc2)C1c1ccc(C)cc1 (centres unmarked) | 18.9% |
| Cc1ncc(CO)c(/C=N/NC(=O)c2ccc(O)cc2)c1O | -5.98% |
| COc1ccc(CC2(C)OC(c3ccc([N+](=O)[O-])cc3)=NN2C(C)=O)cc1 (centres unmarked) | -45.6% |
| O=C(c1cccs1)C1CN2CCC1CC2 (centres unmarked) | -4.77% |
| O=[N+]([O-])c1cc(NS(=O)(=O)c2ccc(Cl)nc2)ccc1Cl | -19.1% |
| Cc1ccc(NC(=O)Cn2cccc2C2=NC(c3ccccc3)CO2)cc1C (centres unmarked) | 7.13% |
| CCC(C(=O)Nc1ccc([N+](=O)[O-])cn1)c1ccccc1 (centres unmarked) | -67.4% |
| COc1ccc(-n2c(SCC(=O)c3ccc[nH]3)nnc2-c2ccccc2)cc1 | 18.6% |
| O=S(=O)(c1cnc[nH]1)N1CCN(c2ccc(Cl)cc2)CC1 | 6.03% |
| CN(C(=O)CN1C(=O)/C(=C/c2ccc(Cl)cc2)SC1=S)C1CCS(=O)(=O)C1 (centres unmarked) | -0.855% |
| CCCN1C(=O)C2(SC(NC(C)=O)=NN2C(C)=O)c2cc(C)ccc21 (centres unmarked) | 39.1% |
| CCCCCn1c(=O)c(C(=O)Nc2ccccc2)c(O)c2ccccc21 | 17.4% |
| CCOC(=O)CN1NC2(CCCCCCC2)NC1=S | 12% |
| COc1ccc(C(=O)OCC(O)COC(=O)c2ccc(OC)cc2)cc1 | -23.2% |
| CCOC(=O)c1nc2cc3n(c(C)c-2c1C)C(C)C(C)=C3C.Cl (centres unmarked) | -42.8% |
| Cc1ccn2cc(-c3cccc(S(=O)(=O)N4CCCCC4)c3)nc2c1 | -27.6% |
| CCCC(c1nnnn1Cc1ccco1)N1CCN(c2ccccc2)CC1.Cl (centres unmarked) | -19.6% |
| CCOC(=O)c1c(C)n(C)c2ccc(OCC(O)CN3CCN(C)CC3)cc12.Cl (centres unmarked) | -2.18% |
| CCSc1nnc(SCC(=O)NC2CCCCC2)s1 | 1.38% |

| SMILES | hERG current change (%, negative = inhibition) at 10uM |
| --- | --- |
| CCCn1c(=O)c2ccccc2n2c(SC(C)C(N)=O)nnc12 (centres unmarked) | 12.2% |
| CC(C)N(C(C)C)S(=O)(=O)c1ccc(N2CCc3ccccc3C2)nc1 | 12.3% |
| CCN(CC)C(=O)C(=O)N/N=C/c1ccc(Br)cc1 | -5.34% |
| Cc1nnc(NC(=O)CSc2ccc(-c3ccco3)nn2)s1 | 9.75% |
| COc1ccc(C(C(=O)NCc2ccccc2)N(Cc2cccnc2)C(=O)c2snc(C(N)=O)c2N)cc1OC (centres unmarked) | -9.91% |
| Cc1nc(CS(=O)c2ccc(Cl)cc2)cc(N2CCOCC2)n1 (centres unmarked) | 10.1% |
| CN(C)c1ccc(C2C3C(=O)NC(=O)C3ON2c2ccc(Cl)cc2)cc1 (centres unmarked) | -64% |
| O=C1Nc2ccccc2C1=O | 3.21% |
| CCn1c(CC(=O)Nc2ccc(C)c(Cl)c2)nnc1SCC(=O)Nc1nc(C)cs1 | 0.625% |
| CN(C)C(=O)O/N=C(\N)COc1ccc(C(C)(C)C)cc1 | 4.28% |
| N=C1S/C(=C\c2ccccc2F)C(=O)N1c1ccc(F)cc1 | 16% |
| O=C(COC(=O)CSc1ccc2ccccc2c1)NCc1ccc2c(c1)OCO2 | 16.3% |
| COc1ccccc1C1CC(c2c(-c3ccccc3)c3cc(Cl)ccc3[nH]c2=O)=NN1S(C)(=O)=O (centres unmarked) | 12.5% |
| N#Cc1ccccc1OCC(=O)OCC(=O)NC1CCCC1 | 2.74% |
| CCOc1cccc(-c2c(C(=O)N/N=C/c3ccncc3)nnn2-c2nonc2N)c1 | -9.65% |
| O=C(O)c1cccc(N2C(=O)c3cc([N+](=O)[O-])cc4cc([N+](=O)[O-])cc(c34)C2=O)c1 | 20.8% |
| O=C(Nc1cccc2c1CCCC2)c1cc([N+](=O)[O-])cc([N+](=O)[O-])c1 | 8.9% |
| CN1c2ccsc2C(O)=C(C(=S)Nc2ccc(F)c(Cl)c2)S1(=O)=O | 9.37% |
| Cc1ccc(NC(=S)N(Cc2cccs2)Cc2cc3cc(C)ccc3[nH]c2=O)cc1 | 9.62% |
| O=C(Nc1nnc(S(=O)(=O)N2CCOCC2)s1)c1ccccc1F | 16.7% |
| C=CCn1c(SCC(=O)N(C)C2CCS(=O)(=O)C2)nnc1-c1ccncc1 (centres unmarked) | -1.94% |
| CCn1c(=O)c(C(=O)Nc2ccccc2S(N)(=O)=O)c(O)c2ccccc21 | 15.8% |
